Source: the supplement of paper PMC12217912
The other results are listed elsewhere or left out. The full chains were built here from the parent and the listed change. Values near 0.05 are background.

B1: TEV protease; numbered along this chain (parent)
chain: MGESLFKGPRDYNPISSSICHLTNESDGHTTSLYGIGFGPFIITNKHLFRRNNGTLVVQSLHGVFKVKDTTTLQQHLVDGRDMIIIRMPKDFPPFPQKLKFREPQREERICLVTTNFQTKSMSSMVSDTSCTFPSGDGIFWKHWIQTKDGQCGSPLVSTRDGFIVGIHSASNFTNTNNYFTSVPKNFMELLTNQEAQQWVSGWRLNADSVLWGGHKVFMVKPEEPFQPVKEATQL

Variants of: B1
Test: raw area under fraction-flipped curve 0-4 h after induction (AUC4h, not background-subtracted), DNA-recorder readout of cleavage of the substrate (dimensionless); higher = more cleavage of the substrate by the protease variant
Details: temperature: 34 °C; time window: 0-4 h after rhamnose induction
Experimental: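 In vivo DNA recorder in E. coli TOP10(DE3) ΔrhaA at 34 °C. Each TEVp single-site mutant (parent TEVp 0) is paired with a single-site variant of the 7-mer TEVs (canonical ENLYFQ|S). The substrate sits between flexible linkers in a Bxb1-sfGFP-TEVs-SsrA fusion, so cleavage stabilises Bxb1 and speeds flipping of a recombination array, read by NGS. The value is the raw area under the fraction-flipped curve over 0-4 h after rhamnose induction (AUC4h), with ≥20 reads per time point. It is not background-subtracted; inactive controls average about 0.047.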
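Also: Bxb1 expression induced with 0.2% (w/v) L-rhamnose at OD600 near 0.5, cultures sampled hourly, flipped fraction per protease–substrate barcode pair counted by paired-end Illumina sequencing.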

Variant | area with substrate EALYFQS | area with substrate ECLYFQS | area with substrate EDLYFQS | area with substrate EELYFQS | area with substrate EFLYFQS | area with substrate EGLYFQS | area with substrate EHLYFQS | area with substrate EILYFQS | area with substrate EKLYFQS | area with substrate ELLYFQS | area with substrate EMLYFQS | area with substrate EPLYFQS | area with substrate EQLYFQS | area with substrate ERLYFQS | area with substrate ESLYFQS | area with substrate ETLYFQS | area with substrate EVLYFQS | area with substrate EWLYFQS | area with substrate EYLYFQS
F117V | 0.109 | 0.105 | 0.0979 | 0.123 | 0.115 | 0.138 | 0.119 | 0.0975 | 0.111 | 0.0822 | 0.116 | 0.114 | 0.117 | 0.108 | 0.13 | 0.122 | 0.115 | 0.0925 | 0.125
L48P | 0.0575 | 0.0575 | – | 0.0669 | – | 0.0465 | 0.0612 | 0.0515 | 0.0708 | – | – | – | 0.041 | 0.0643 | 0.0593 | 0.0502 | – | 0.0665 | 0.0769
N24V | 0.085 | 0.0734 | 0.098 | 0.105 | – | 0.0853 | – | 0.0854 | 0.0905 | 0.0851 | 0.071 | – | 0.0692 | 0.0849 | 0.0842 | 0.0834 | 0.0763 | 0.076 | 0.0753
P104R | 0.0757 | 0.0527 | – | 0.0444 | 0.0706 | 0.0388 | 0.0484 | 0.0521 | 0.0548 | 0.0528 | – | 0.0502 | – | – | 0.0576 | 0.0637 | 0.047 | 0.0583 | –
T192L | 0.119 | 0.103 | – | – | – | 0.0788 | 0.0954 | 0.11 | – | – | – | 0.118 | 0.111 | – | 0.107 | – | 0.0967 | 0.0854 | –
H21E | 0.0961 | 0.0975 | 0.0712 | 0.0936 | 0.0654 | 0.0839 | 0.0628 | 0.0735 | 0.108 | 0.0585 | 0.0993 | 0.102 | 0.0405 | 0.089 | 0.0911 | 0.12 | 0.0707 | – | 0.09
L61C | 0.105 | 0.0979 | 0.126 | 0.121 | 0.128 | 0.0908 | 0.0819 | 0.0963 | 0.118 | 0.0946 | 0.116 | 0.122 | 0.108 | 0.103 | 0.105 | 0.115 | 0.111 | 0.0862 | 0.0879
L56F | 0.119 | 0.0871 | 0.127 | 0.0599 | – | 0.0847 | 0.0831 | 0.0833 | 0.0917 | – | 0.101 | 0.0878 | 0.0698 | 0.0737 | 0.0833 | 0.106 | 0.0764 | 0.0861 | 0.0873
I36P | 0.0438 | 0.0352 | – | 0.0401 | – | 0.0352 | – | 0.032 | – | 0.0463 | 0.0397 | – | 0.0403 | – | 0.048 | 0.0521 | 0.0487 | 0.0303 | –
G8M | 0.109 | 0.124 | – | 0.124 | – | – | – | 0.0879 | 0.0608 | – | 0.0876 | – | 0.115 | 0.105 | 0.107 | 0.102 | – | 0.0763 | –
L112D | 0.0589 | – | 0.0455 | 0.0485 | 0.0574 | – | – | 0.0667 | 0.0589 | 0.0506 | 0.0379 | 0.061 | 0.0539 | 0.0578 | 0.0534 | 0.0657 | – | – | –
L5D | 0.13 | 0.121 | – | – | 0.131 | – | – | – | 0.103 | 0.0753 | 0.111 | – | 0.133 | – | 0.112 | – | 0.0765 | – | 0.124
D208T | 0.0539 | – | 0.103 | 0.0721 | – | – | 0.0695 | 0.0987 | – | – | 0.0861 | 0.0883 | 0.0801 | 0.0773 | – | 0.106 | 0.0728 | – | –
